B1: CAACGAC (DNA:RNA)
RNA: GGGAGACCGGAAUUCAGAUUGUCCCAACGACUUAAAUCCCGUCGUAGCCACCA
DNA 1: CAATCTGAATTCCGGTCTCCC
DNA 2: TGGTGGCTACGACGGGATT
B2: CUACACC (DNA:RNA)
RNA: B1 RNA with A26U, G29A, A30C
DNA 1: CAATCTGAATTCCGGTCTCCC
DNA 2: TGGTGGCTACGACGGGATT
B3: CGUUUUG (DNA:RNA)
RNA: B1 RNA with A26G, A27U, C28U, G29U, A30U, C31G
DNA 1: CAATCTGAATTCCGGTCTCCC
DNA 2: TGGTGGCTACGACGGGATT
B4: CGGCCAG (DNA:RNA)
RNA: B1 RNA with A26G, A27G, G29C, C31G
DNA 1: CAATCTGAATTCCGGTCTCCC
DNA 2: TGGTGGCTACGACGGGATT
B5: AAUGGUA (DNA:RNA)
RNA: B1 RNA with C25A, A27U, C28G, A30U, C31A
DNA 1: CAATCTGAATTCCGGTCTCCC
DNA 2: TGGTGGCTACGACGGGATT
B6: CUACUAG (DNA:RNA)
RNA: B1 RNA with A26U, G29U, C31G
DNA 1: CAATCTGAATTCCGGTCTCCC
DNA 2: TGGTGGCTACGACGGGATT
B7: UAUGCUC (DNA:RNA)
RNA: B1 RNA with C25U, A27U, C28G, G29C, A30U
DNA 1: CAATCTGAATTCCGGTCTCCC
DNA 2: TGGTGGCTACGACGGGATT
B8: AAUUUUC (DNA:RNA)
RNA: B1 RNA with C25A, A27U, C28U, G29U, A30U
DNA 1: CAATCTGAATTCCGGTCTCCC
DNA 2: TGGTGGCTACGACGGGATT
B9: GUAAUAA (DNA:RNA)
RNA: B1 RNA with C25G, A26U, C28A, G29U, C31A
DNA 1: CAATCTGAATTCCGGTCTCCC
DNA 2: TGGTGGCTACGACGGGATT
B10: GCGGUAG (DNA:RNA)
RNA: B1 RNA with C25G, A26C, A27G, C28G, G29U, C31G
DNA 1: CAATCTGAATTCCGGTCTCCC
DNA 2: TGGTGGCTACGACGGGATT
B11: AUCAGAG (DNA:RNA)
RNA: B1 RNA with C25A, A26U, A27C, C28A, C31G
DNA 1: CAATCTGAATTCCGGTCTCCC
DNA 2: TGGTGGCTACGACGGGATT
B12: GGACAAG (DNA:RNA)
RNA: B1 RNA with C25G, A26G, G29A, C31G
DNA 1: CAATCTGAATTCCGGTCTCCC
DNA 2: TGGTGGCTACGACGGGATT
B13: ACUUAUA (DNA:RNA)
RNA: GGGAGACCGGAAUUCAGAUUGUCCACUUAUAUUAAAUCCCGUCGUAGCCACCA
DNA 1: CAATCTGAATTCCGGTCTCCC
DNA 2: TGGTGGCTACGACGGGATT
B14: UAGGAUU (DNA:RNA)
RNA: B13 RNA with A25U, C26A, U27G, U28G, A31U
DNA 1: CAATCTGAATTCCGGTCTCCC
DNA 2: TGGTGGCTACGACGGGATT
B15: UCGCUUA (DNA:RNA)
RNA: B13 RNA with A25U, U27G, U28C, A29U
DNA 1: CAATCTGAATTCCGGTCTCCC
DNA 2: TGGTGGCTACGACGGGATT
B16: CGUGCUG (DNA:RNA)
RNA: B13 RNA with A25C, C26G, U28G, A29C, A31G
DNA 1: CAATCTGAATTCCGGTCTCCC
DNA 2: TGGTGGCTACGACGGGATT
B17: UUACCCC (DNA:RNA)
RNA: B1 RNA with C25U, A26U, G29C, A30C
DNA 1: CAATCTGAATTCCGGTCTCCC
DNA 2: TGGTGGCTACGACGGGATT
B18: GCCGGAA (DNA:RNA)
RNA: B13 RNA with A25G, U27C, U28G, A29G, U30A
DNA 1: CAATCTGAATTCCGGTCTCCC
DNA 2: TGGTGGCTACGACGGGATT
B19: CCCAAUU (DNA:RNA)
RNA: B13 RNA with A25C, U27C, U28A, A31U
DNA 1: CAATCTGAATTCCGGTCTCCC
DNA 2: TGGTGGCTACGACGGGATT
B20: CACACCA (DNA:RNA)
RNA: B1 RNA with A27C, C28A, G29C, A30C, C31A
DNA 1: CAATCTGAATTCCGGTCTCCC
DNA 2: TGGTGGCTACGACGGGATT
B21: GUGACAG (DNA:RNA)
RNA: B1 RNA with C25G, A26U, A27G, C28A, G29C, C31G
DNA 1: CAATCTGAATTCCGGTCTCCC
DNA 2: TGGTGGCTACGACGGGATT
B22: AGCAGUC (DNA:RNA)
RNA: B13 RNA with C26G, U27C, U28A, A29G, A31C
DNA 1: CAATCTGAATTCCGGTCTCCC
DNA 2: TGGTGGCTACGACGGGATT
B23: GAUACUA (DNA:RNA)
RNA: B13 RNA with A25G, C26A, U28A, A29C
DNA 1: CAATCTGAATTCCGGTCTCCC
DNA 2: TGGTGGCTACGACGGGATT
B24: UCGAUGA (DNA:RNA)
RNA: B13 RNA with A25U, U27G, U28A, A29U, U30G
DNA 1: CAATCTGAATTCCGGTCTCCC
DNA 2: TGGTGGCTACGACGGGATT
B25: AAGGGUG (DNA:RNA)
RNA: B13 RNA with C26A, U27G, U28G, A29G, A31G
DNA 1: CAATCTGAATTCCGGTCTCCC
DNA 2: TGGTGGCTACGACGGGATT
B26: AUUAAGA (DNA:RNA)
RNA: B13 RNA with C26U, U28A, U30G
DNA 1: CAATCTGAATTCCGGTCTCCC
DNA 2: TGGTGGCTACGACGGGATT
B27: AGCCCAC (DNA:RNA)
RNA: B1 RNA with C25A, A26G, A27C, G29C
DNA 1: CAATCTGAATTCCGGTCTCCC
DNA 2: TGGTGGCTACGACGGGATT
B28: GGAUCUC (DNA:RNA)
RNA: B13 RNA with A25G, C26G, U27A, A29C, A31C
DNA 1: CAATCTGAATTCCGGTCTCCC
DNA 2: TGGTGGCTACGACGGGATT
B29: UACGGGA (DNA:RNA)
RNA: B1 RNA with C25U, A27C, C28G, A30G, C31A
DNA 1: CAATCTGAATTCCGGTCTCCC
DNA 2: TGGTGGCTACGACGGGATT
B30: UCUUUCG (DNA:RNA)
RNA: B13 RNA with A25U, A29U, U30C, A31G
DNA 1: CAATCTGAATTCCGGTCTCCC
DNA 2: TGGTGGCTACGACGGGATT
B31: CUGGACA (DNA:RNA)
RNA: B13 RNA with A25C, C26U, U27G, U28G, U30C
DNA 1: CAATCTGAATTCCGGTCTCCC
DNA 2: TGGTGGCTACGACGGGATT

Residue numbers refer to the chain shown, from its start. Some of the results follow.

For the experiment, the target named is T1, RBFOX1 RRM RbFoxmut (Fox-RRM*) (Homo sapiens, UniProt Q9NWB1 109-208, R118D;E147R;N151S;E152T).
T1 sequence: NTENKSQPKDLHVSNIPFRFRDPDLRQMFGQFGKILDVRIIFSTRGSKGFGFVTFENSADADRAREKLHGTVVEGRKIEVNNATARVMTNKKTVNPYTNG
As to the kind of experiment: EMSA; HiTS-Eq, 1 nM pool, 10 min; buffer printed only for the single-RNA assays: 10 mM Tris pH 7.5, 150 mM NaCl, 3.4 mM EDTA, 0.001% NP-40, 30 C. Conditions: tags: His6 N-terminal (pET28a); label: 5' 32P. An outline of the steps: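 Purified RbFox RRM (wild type or mutant) was equilibrated for 10 min in 50 µL with 1 nM of a 5′-radiolabelled pool of RNA with 7 randomized nucleotides, its flanks annealed to DNA oligonucleotides, across increasing protein concentrations. Free RNA was separated by 8% native PAGE, excised, reverse-transcribed, PCR-barcoded and sequenced on an Illumina HiSeq 2500. Relative association constants came from read-count changes of each variant against the control reaction, normalised to the cognate motif.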
With B1, the binding signal is 0.0723 KA relative to UGCAUGU.

As for B2, the binding signal was 0.0601 KA relative to UGCAUGU.

B3: the binding signal was 0.133 KA relative to UGCAUGU.

For B4, the binding signal is 0.0695 KA relative to UGCAUGU.

With B5, the binding signal was 0.148 KA relative to UGCAUGU.

Regarding B6, the binding signal is 0.094 KA relative to UGCAUGU.

As for B7, the binding signal was 0.0683 KA relative to UGCAUGU.

On to B8, for which the binding signal is 0.0604 KA relative to UGCAUGU.

As for B9, the binding signal was 0.13 KA relative to UGCAUGU.

As to B10, the binding signal was 0.127 KA relative to UGCAUGU.

For the molecule B11, the binding signal is 0.127 KA relative to UGCAUGU.

With B12, the binding signal was 0.0687 KA relative to UGCAUGU.

In the case of B13, the binding signal is 0.147 KA relative to UGCAUGU.

With B14, the binding signal was 0.0707 KA relative to UGCAUGU.

Regarding B15, the binding signal is 0.154 KA relative to UGCAUGU.

With B16, the binding signal is 0.126 KA relative to UGCAUGU.

For B17, the binding signal is 0.0534 KA relative to UGCAUGU.

On to B18, for which the binding signal was 0.0679 KA relative to UGCAUGU.

Take B19: the binding signal is 0.0634 KA relative to UGCAUGU.

For the molecule B20, the binding signal was 0.0781 KA relative to UGCAUGU.

In the case of B21, the binding signal is 0.0828 KA relative to UGCAUGU.

B22: the binding signal was 0.0754 KA relative to UGCAUGU.

Turning to B23, the binding signal is 0.0759 KA relative to UGCAUGU.

For the molecule B24, the binding signal is 0.07 KA relative to UGCAUGU.

Turning to B25, the binding signal was 0.143 KA relative to UGCAUGU.

B26: the binding signal is 0.1 KA relative to UGCAUGU.

As to B27, the binding signal is 0.0751 KA relative to UGCAUGU.

As to B28, the binding signal is 0.0701 KA relative to UGCAUGU.

Consider B29, for which the binding signal was 0.0657 KA relative to UGCAUGU.

In the case of B30, the binding signal is 0.0501 KA relative to UGCAUGU.

As for B31, the binding signal was 0.0347 KA relative to UGCAUGU.

(Values after PMC9911399, “Two distinct binding modes provide the RNA-binding protein RbFox with extraordinary sequence specificity”.)
